We go through 28 compounds from the antibiotic and cytotoxicity screens of Wong et al. (2023).

The list shows a part of the results.

For one experiment, the system named is HSkMC. Description: cytotoxicity call (relative viability < 0.9). The settings on record: 10 µM.
A further experiment concerns HepG2. Description: cytotoxicity call (relative viability < 0.9). The settings on record: 10 µM.
The next experiment has as its system S. aureus RN4220. Description: growth inhibition call (relative growth <= 0.2). As to conditions: 50 µM.

For `C[C@H](CO)N1C[C@H](C)[C@@H](CN(C)S(C)(=O)=O)Oc2c(NC(=O)Nc3ccccc3)cccc2C1=O`, the cytotoxicity call with HSkMC and in the experiment on HepG2 was “inactive” in each case. Besides, in the experiment on S. aureus RN4220, the growth inhibition call was “inactive”.

Consider `C[C@H](CO)N1C[C@H](C)[C@@H](CN(C)CC2CCOCC2)Oc2cc(-c3cccnc3)ccc2S1(=O)=O`, for which the cytotoxicity call with HSkMC and in the experiment on HepG2 was “inactive” throughout. Also, in the experiment on S. aureus RN4220, the growth inhibition call was “inactive”.

With `CN(C)CCCNC(=O)C[C@@H]1CC[C@H]2[C@H](COc3ccc(NC(=O)c4cccc(F)c4)cc3C(=O)N2C)O1`, the cytotoxicity call in the experiment with HSkMC and in the experiment with HepG2 was “inactive” throughout. Moreover, the growth inhibition call in the experiment with S. aureus RN4220 was “inactive”.

For the compound `CCS(=O)(=O)Nc1ccc2c(c1)C(=O)N(C)[C@H]1CC[C@@H](CC(=O)NCc3ccc(OC)cc3)O[C@@H]1CO2`, the cytotoxicity call in the experiment on HSkMC and with HepG2 was “inactive” in each case. The growth inhibition call in the experiment with S. aureus RN4220 was “inactive”.

With `Cc1ccc(S(=O)(=O)N(C)C[C@H]2OCCCC[C@@H](C)Oc3ccc(NC(=O)CCCCCC(=O)Nc4ccccc4N)cc3C(=O)N([C@H](C)CO)C[C@@H]2C)cc1`, the cytotoxicity call with HSkMC and in the experiment on HepG2 was “inactive” in each case. In the experiment with S. aureus RN4220, the growth inhibition call is “inactive”.

As to `C=CCOC(=O)[C@@H]1[C@H]2C(=O)O[C@H](c3ccccc3)[C@H](c3ccccc3)N2[C@H](c2ccc(OCCOC(=O)[C@H]3C[C@H]4C(=O)N[C@@H](CCCC[N+](C)(C)C)C(=O)N4[C@H]3c3cccc(OCCO)c3)cc2)[C@@]12C(=O)Nc1ccccc12`, the cytotoxicity call in the experiment with HSkMC and with HepG2 was “inactive” each time. In addition, in the experiment on S. aureus RN4220, the growth inhibition call is “inactive”.

Consider `O=C(C[C@H]1C[C@H]2c3cc(NC(=O)Nc4ccccc4F)ccc3O[C@H]2[C@H](CO)O1)NCc1ccc(Oc2ccccc2)cc1`, for which the cytotoxicity call with HSkMC and in the experiment on HepG2 was “inactive” each time. In the experiment on S. aureus RN4220, the growth inhibition call is “inactive”.

Turning to `COC(=O)CCCCCCC(=O)N/N=C/[C@H](O)[C@H](O)[C@@H](O)[C@H](C)O`, the cytotoxicity call in the experiment with HSkMC and in the experiment on HepG2 was “inactive” each time. Besides, the growth inhibition call in the experiment on S. aureus RN4220 is “inactive”.

Turning to `Cc1c(/C=N/O)sc2ccccc12`, the cytotoxicity call with HSkMC and in the experiment on HepG2 was “inactive” in each case. In the experiment on S. aureus RN4220, the growth inhibition call was “inactive”.

Turning to `C[C@H]1CN([C@@H](C)CO)C(=O)Cc2cc(NC(=O)CCCCCC(=O)Nc3ccccc3N)ccc2O[C@H]1CN(C)Cc1ccc(Cl)c(Cl)c1`, the cytotoxicity call in the experiment on HSkMC and with HepG2 was “inactive” each time. For the same compound, the growth inhibition call in the experiment on S. aureus RN4220 was “inactive”.

`C[C@H]1CN([C@@H](C)CO)C(=O)Cc2cc(NS(=O)(=O)c3ccc(Cl)cc3)ccc2O[C@H]1CN(C)S(=O)(=O)c1cn(C)cn1`: the cytotoxicity call in the experiment with HSkMC and in the experiment on HepG2 was “inactive” in each case. Further, the growth inhibition call in the experiment with S. aureus RN4220 was “inactive”.

`C[C@H](CO)N1C[C@H](C)[C@H](CN(C)Cc2ccncc2)Oc2ccc(NS(=O)(=O)c3cccs3)cc2C1=O`: the cytotoxicity call in the experiment on HSkMC and with HepG2 was “inactive” in each case. The growth inhibition call with S. aureus RN4220 is “inactive”.

In the case of `C[C@H](CO)N1C[C@H](C)[C@@H](CN(C)Cc2ccc(C(F)(F)F)cc2)Oc2ccc(NC(=O)C3CCCCC3)cc2CC1=O`, the cytotoxicity call in the experiment with HSkMC and in the experiment on HepG2 was “inactive” throughout. Besides, the growth inhibition call in the experiment on S. aureus RN4220 was “inactive”.

`CC(C)(C)NC(=O)[C@@H]1C[C@@H]2CCCC[C@@H]2CN1C[C@@H](O)[C@H](Cc1ccccc1)NC(=O)[C@H](CC(N)=O)NC(=O)c1ccc2ccccc2n1`: the cytotoxicity call with HSkMC and with HepG2 was “inactive” each time. The growth inhibition call in the experiment on S. aureus RN4220 was “inactive”.

For `NC(=O)c1cccc(N)c1`, the cytotoxicity call in the experiment with HSkMC and in the experiment on HepG2 was “inactive” each time. Also, in the experiment on S. aureus RN4220, the growth inhibition call is “inactive”.

Regarding `Cc1ccc(S(=O)(=O)N(C)C[C@@H]2OCCCC[C@H](C)Oc3ccc(NC(=O)c4ccccc4)cc3C(=O)N([C@H](C)CO)C[C@@H]2C)cc1`, the cytotoxicity call with HSkMC and in the experiment on HepG2 was “inactive” in each case. In addition, the growth inhibition call with S. aureus RN4220 was “inactive”.

`COc1ccc(Cl)cc1C(=O)NCCc1ccc(S(=O)(=O)NC(=O)NC2CCCCC2)cc1`: the cytotoxicity call in the experiment on HSkMC and with HepG2 was “inactive” in each case. For the same compound, the growth inhibition call with S. aureus RN4220 is “inactive”.

In the case of `COc1ccc(CN(C)C[C@H]2OCCCC[C@H](C)Oc3ccc(NC(=O)Nc4ccc5c(c4)OCO5)cc3C(=O)N([C@@H](C)CO)C[C@H]2C)cc1`, the cytotoxicity call with HSkMC is “inactive”. In the experiment on HepG2, the cytotoxicity call is “active”. The growth inhibition call in the experiment with S. aureus RN4220 was “inactive”.

With `CCO[C@H]1OC(C(=O)N2CCN(Cc3ccc4c(c3)OCO4)CC2)=C[C@@H](c2ccc3c(c2)OCO3)[C@@H]1CCCO`, the cytotoxicity call with HSkMC and with HepG2 was “inactive” in each case. For the same compound, in the experiment with S. aureus RN4220, the growth inhibition call is “inactive”.

As for `COc1ccccc1CNC(=O)C[C@H]1C[C@H]2c3cc(NS(=O)(=O)c4ccc(F)cc4)ccc3O[C@H]2[C@H](CO)O1`, the cytotoxicity call with HSkMC and in the experiment with HepG2 was “inactive” in each case. In the experiment on S. aureus RN4220, the growth inhibition call is “inactive”.

On to `O=C(C[C@@H]1CC[C@H](NC(=O)c2cnccn2)[C@@H](CO)O1)NCc1ccccc1F`, for which the cytotoxicity call in the experiment on HSkMC and in the experiment with HepG2 was “inactive” throughout. Also, in the experiment on S. aureus RN4220, the growth inhibition call is “inactive”.

As for `C[C@@H]1CN([C@H](C)CO)C(=O)c2cc(NC(=O)Cc3ccccc3)ccc2O[C@@H]1CN(C)Cc1ccc(Cl)c(Cl)c1`, the cytotoxicity call with HSkMC and in the experiment on HepG2 was “inactive” each time. Besides, the growth inhibition call with S. aureus RN4220 was “inactive”.

Take `CN(C)Cc1cn(CC[C@H]2CC[C@H](NS(=O)(=O)c3ccccc3)[C@@H](CO)O2)nn1`: the cytotoxicity call with HSkMC and with HepG2 was “inactive” throughout. The growth inhibition call with S. aureus RN4220 was “inactive”.

Consider `C[C@@H]1CN([C@H](C)CO)C(=O)c2cc(C#CC3(O)CCCC3)cnc2O[C@@H]1CN(C)C(=O)C1CCCCC1`, for which the cytotoxicity call with HSkMC and in the experiment on HepG2 was “inactive” in each case. For the same compound, the growth inhibition call in the experiment on S. aureus RN4220 was “inactive”.

For `C#CCCCCCCCCCCCC(O)CC(O)COC(C)=O` (centres undefined), the cytotoxicity call in the experiment on HSkMC and with HepG2 was “inactive” in each case. In addition, the growth inhibition call with S. aureus RN4220 is “inactive”.

Turning to `O=C1NS(=O)(=O)c2ccccc21`, the cytotoxicity call with HSkMC and in the experiment on HepG2 was “inactive” in each case. In addition, the growth inhibition call in the experiment on S. aureus RN4220 is “inactive”.

Turning to `O=C(O)[C@@H]1CC(=O)N(C2CCCC2)C1`, the cytotoxicity call in the experiment on HSkMC (human skeletal muscle cells) and in the experiment with HepG2 was “inactive” in each case. Besides, the growth inhibition call with S. aureus RN4220 is “inactive”.

Consider `COc1cccc(-c2ccc3c(c2)O[C@H](CN(C)C(=O)C2CC2)[C@@H](C)CN([C@@H](C)CO)S3(=O)=O)c1`, for which the cytotoxicity call with HSkMC and with HepG2 was “inactive” throughout. The growth inhibition call with S. aureus RN4220 is “inactive”.
